# From PubChem BioAssay AID485281 (National Center for Advancing Translational Sciences (NCATS), 2010)
# Several values for one entry are separate records, joined by “and”; a condition that tells them apart may be missing. Identical values can stand only once. Out of some 350,000 compounds screened, about 260 (0.074%) were called active. Inconclusive means that the source gave no clear call. Such entries were picked first, then a sample of the others. Calls come from the whole dose curve; as a rule, active = well fitted inhibition curve with a large enough effect; inconclusive = small, poorly fitted or top-dose-only effect; inactive = no such curve, though single readings can be large or run the other way. Potencies of inconclusive entries are doubtful fits and often do not repeat.
# Biological target: Ferritin light chain (Equus caballus) (UniProt P02791)
# Sequence of UniProt P02791 (P02791 whole entry, looked up): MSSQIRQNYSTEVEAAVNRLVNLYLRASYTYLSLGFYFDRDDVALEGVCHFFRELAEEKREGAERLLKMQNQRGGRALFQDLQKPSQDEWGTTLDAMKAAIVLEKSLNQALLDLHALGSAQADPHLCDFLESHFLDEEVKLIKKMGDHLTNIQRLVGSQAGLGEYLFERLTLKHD
# Experiment: qHTS Assay for Identification of Novel General Anesthetics; note: nearly all actives have a fitted effect of over 20% in size
# Conditions: apoferritin/1-aminoanthracene competitive binding, fluorescence; series mostly up to 77.5 µM
# Outline: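 Concentration-response curves derived by four-parameter Hill fitting of normalized fluorescence, where compounds displaced 1-AMA from 10 uM horse apoferritin following a brief 10 min room-temperature incubation; propofol titration acted as positive control.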
# Potency is the fitted concentration of half-maximal effect; tags give direction and shape of the fitted curve.
row,Structure (SMILES),Potency
1,Nc1nnc(Cc2ccc(Cl)c(Cl)c2)s1,"inconclusive: 44.7 µM [inhibitor, single point]"
2,COc1ccc(CNC(=O)CCc2c(C)nc3cc(-c4ccccc4OC)nn3c2C)cc1,inactive
3,CC(C)c1ccc(N2C(=O)CC(Sc3nc4ccccc4o3)C2=O)cc1 (stereo not drawn),"inconclusive: 8.91 µM [inhibitor, full curve]"
4,CC(C)NOC(=O)c1ccc(Cl)cc1,"inconclusive: 35.5 µM [inhibitor, single point]"
5,O=C(COC(=O)c1cc([N+](=O)[O-])ccc1N1CCOCC1)c1ccccc1Cl,"inconclusive: 35.5 µM [inhibitor, single point]"
6,O=C(CNC(=S)NC(=O)c1ccc(Cl)cc1)c1ccccc1,inactive
7,NS(=O)(=O)c1ccc(N2C(=O)C3CC=CCC3C2=O)cc1 (stereo not drawn),"inconclusive: 28.2 µM [inhibitor, partial curve]"
8,Cc1cc(NC(=O)CN2C(=O)NC3(CCCCCC3)C2=O)no1,"inconclusive: 25.1 µM [inhibitor, partial curve]"
9,CC1C(=O)CC(c2ccc([N+](=O)[O-])cc2)NC1c1ccc([N+](=O)[O-])cc1 (stereo not drawn),"inconclusive: 28.2 µM [inhibitor, partial curve]"
10,Cc1cc(C)cc(NC(=O)c2cc(S(=O)(=O)NCc3ccco3)ccc2F)c1,"inconclusive: 35.5 µM [inhibitor, partial curve]"
11,O=c1c2ccccc2nc(-c2ccoc2)n1CCc1ccccc1,inactive
12,CSc1cccc(NCc2ccc([N+](=O)[O-])cc2)c1,"inconclusive: 35.5 µM [inhibitor, partial curve]"
13,Cc1cccc(-n2nnc(C(=O)NCc3ccc4c(c3)OCO4)c2N)c1,"inconclusive: 5.62 µM [inhibitor, full curve]"
14,Cc1cc(C)cc(-n2c(C)cc(/C=N/NC(=O)CSc3ncccn3)c2C)c1,"inconclusive: 20 µM [inhibitor, partial curve]"
15,O=C(OC1CCCCC1)c1ccc(NC(=O)c2ccco2)cc1,"inconclusive: 31.6 µM [inhibitor, single point]"
16,Brc1cccc(OCCSc2ncccn2)c1,"inconclusive: 31.6 µM [inhibitor, partial curve]"
17,CCOc1cc(C(=O)CSc2nnc(CNc3ccc(Cl)cc3)o2)ccc1NC(=O)CC,"inconclusive: 12.6 µM [inhibitor, partial curve]"
18,c1ccc(N2CCN(c3ccccc3)C2c2ccncc2)cc1,"inconclusive: 31.6 µM [inhibitor, single point]"
19,CCOC(=O)c1csc(N/N=C2\CCCc3ccccc32)n1,"inconclusive: 25.1 µM [inhibitor, single point]"
20,COc1ccc2c(-c3ccccc3)cc(SCC(=O)N(C)C)nc2c1,"inconclusive: 31.6 µM [inhibitor, partial curve]"
21,Cc1cc2c(cc(C(=O)NCc3cccnc3)n2Cc2ccc(Cl)cc2)o1,"inconclusive: 28.2 µM [inhibitor, single point]"
22,COc1ccc(S(=O)(=O)N2CCC(C(=O)N3CCN(c4ccccc4OC)CC3)CC2)cc1,inactive
23,CCC1=NN(C(=O)c2ccc(Cl)cc2)C(O)(c2ccc(C)cc2)C1 (stereo not drawn),inactive

row,Structure (SMILES),Potency
1,O=S(=O)(Nc1ccc2oc3c(c2c1)CCCC3)c1cc(Cl)ccc1Cl,inactive
2,COc1ccc(Cc2nnc(SCc3c(C)noc3C)n2C2CCCCC2)cc1OC,"inconclusive: 44.7 µM [inhibitor, single point]"
3,CC1CCN(C(=O)CSc2nnc(-c3ccccc3Cl)o2)CC1,"inconclusive: 14.1 µM [inhibitor, partial curve]"
4,O=C1CCCC2=C1C(c1ccc(Cl)cc1)C1C(=O)c3ccccc3C1=N2 (stereo not drawn),"inconclusive: 6.31 µM [inhibitor, full curve, poor fit]"
5,Cc1cc(NC(=O)CSc2nnnn2C2CCCC2)no1,"inconclusive: 10 µM [inhibitor, partial curve]"
6,CC1(c2ccccc2Cl)NC(=O)N(CC(=O)NC(=O)NCc2ccco2)C1=O (stereo not drawn),"inconclusive: 31.6 µM [inhibitor, partial curve]"
7,O=C(Nc1ccc(S(=O)(=O)N2CCOCC2)cc1)c1ccccc1F,"inconclusive: 31.6 µM [inhibitor, single point]"
8,CC1=C(C(=O)NC2CCCc3c2cnn3-c2cccc(C)c2C)OCCO1 (stereo not drawn),inactive
9,CCOC(=O)C1=C(C)N=C2SC(CC)C(=O)N2C1c1cccc(F)c1 (stereo not drawn),"inconclusive: 35.5 µM [inhibitor, partial curve]"
10,CSc1ccc(/C=N/Nc2ccc(Cl)c(C(=O)O)c2)cc1,inactive
11,NC(C(=O)O)c1nn[nH]n1 (stereo not drawn),"inconclusive: 79.4 µM [inhibitor, partial curve]"
12,Cc1cccc(CN2CCC(C(=O)Nc3cccc(-c4cccc(F)c4)c3)CC2)n1,inactive
13,Cc1cc(C)n(-c2ccc(C(=O)OCC(=O)c3ccc(Br)s3)cc2)n1,"inconclusive: 28.2 µM [inhibitor, partial curve]"
14,Cc1cc(C)n2nc(SCc3ncc(-c4ccccc4)o3)nc2n1,"inconclusive: 17.8 µM [inhibitor, partial curve]"
15,Cc1ccc(NC(=O)CSc2nc3ncccc3[nH]2)cc1F,"inconclusive: 11.2 µM [inhibitor, full curve]"
16,FC(F)(F)Oc1ccccc1-c1nnc(-c2cccc(C(F)(F)F)c2)o1,"inconclusive: 50.1 µM [inhibitor, single point]"
17,CCCCOC(=O)Cn1cnc2ccc(Br)cc2c1=O,"inconclusive: 25.1 µM [inhibitor, partial curve]"
18,CC(C)(C)c1ccc(OCc2nc(-c3ccccn3)no2)c(Br)c1,"inconclusive: 17.8 µM [inhibitor, partial curve]"
19,CC1CCCCC1NS(=O)(=O)c1ccc(S(=O)(=O)N2CCCC2)cc1 (stereo not drawn),"inconclusive: 28.2 µM [inhibitor, partial curve]"
20,Cc1cc(F)ccc1S(=O)(=O)N1CCCOC1CNC(=O)C(=O)NCc1ccc2c(c1)OCO2 (stereo not drawn),"inconclusive: 25.1 µM [inhibitor, single point]"
21,CCc1c(C)sc2nc3c(C(=O)N4CCOCC4)cc(C(=O)c4ccccc4O)cn3c(=O)c12,"inconclusive: 14.1 µM [inhibitor, partial curve]"
22,COc1ccccc1NC(=O)Cn1nnc(C(=O)NCc2ccc3c(c2)OCO3)c1N,"inconclusive: 2.51 µM [inhibitor, full curve] and inconclusive: 3.55 µM [inhibitor, full curve]"
23,CCn1c(CSc2nnc(-c3ccncc3)n2CCOC)nc2cc(C(=O)O)ccc21,inactive

row,Structure (SMILES),Potency
1,Cc1nn(Cc2ccccc2Cl)c(C)c1NC(=O)NC12CC3CC(CC(C3)C1)C2,"inconclusive: 4.47 µM [inhibitor, full curve, poor fit]"
2,O=C(Nc1nnc(C2CC2)s1)c1cc([N+](=O)[O-])ccc1N1CCCCC1,"inconclusive: 35.5 µM [inhibitor, partial curve]"
3,O=C(NC1CCCC1)C1CC(c2ccc(F)cc2)=NO1 (stereo not drawn),inactive
4,Cc1cc(NO)nc(-c2ccc(Br)cc2)n1,"inconclusive: 3.55 µM [inhibitor, full curve, poor fit]"
5,COCC1CCN(C(=O)c2cc(COc3ccccc3SC)on2)C1 (stereo not drawn),"inconclusive: 7.08 µM [inhibitor, single point]"
6,COc1ccc(OCc2cc(C(=O)NC(C)c3cnn(C)c3)no2)c(Cl)c1 (stereo not drawn),"inconclusive: 35.5 µM [inhibitor, partial curve]"
7,O=C(O)c1ccc(N/N=C/C=C/c2ccc([N+](=O)[O-])o2)cc1,inactive
8,COc1cc(OC)cc(-n2nnnc2SCC(=O)N2CCCC2)c1,inactive
9,O=C(CSc1nccn1-c1ccc(Cl)cc1)Nc1ccc2c(c1)OCO2,"inconclusive: 35.5 µM [inhibitor, partial curve]"
10,CCc1ccccc1N(C)C(=O)Cn1cnc2sc(C)c(S(=O)(=O)N3CCN(c4ncccn4)CC3)c2c1=O,inactive
11,O=C(COC(=O)c1cccnc1Cl)Nc1cccc(S(=O)(=O)N2CCCCC2)c1,"inconclusive: 22.4 µM [inhibitor, partial curve]"
12,CCOc1ccc(Nc2nc(N)c3ccccc3n2)cc1,inactive
13,O=C(CCC(=O)N1CCOc2ccccc21)NC1CCCCCC1,"inconclusive: 31.6 µM [inhibitor, partial curve]"
14,CCCc1cc(C(N)=O)c(NC(=O)c2ccoc2C)s1,inactive
15,CCOC(=O)CNc1cccc(C(F)(F)F)c1,"inconclusive: 20 µM [inhibitor, partial curve]"
16,O=C1c2ccccc2C(=O)N1CCOc1ccccc1Br,"inconclusive: 35.5 µM [inhibitor, single point]"
17,O=C(CC1CCCCC1)Nc1ncn[nH]1,"inconclusive: 44.7 µM [inhibitor, partial curve]"
18,COc1ccccc1CC(=O)Nc1cc(Cl)ccc1O,"inconclusive: 5.62 µM [inhibitor, full curve]"
19,O=C(Cn1nc(-c2ccccc2)c2ccccc2c1=O)Nc1cccc(O)c1,"inconclusive: 15.8 µM [inhibitor, partial curve]"
20,CC1CCN(C2(O)C(=O)Nc3ccc(Cl)cc32)CC1 (stereo not drawn),"inconclusive: 31.6 µM [inhibitor, partial curve]"
21,CC(C)c1ccc(NC(=O)CN(C)S(=O)(=O)c2ccc3c(c2)c(=O)n(C)c(=O)n3C)cc1,"inconclusive: 31.6 µM [inhibitor, partial curve]"
22,O=C(NCc1cccs1)C1CCCN1C(=O)Nc1ccc(Cl)cc1 (stereo not drawn),inactive
